Results taken from PubChem BioAssay AID485294 (National Center for Advancing Translational Sciences (NCATS), 2010).
In all, about 370,000 compounds went through this assay and about 150 (0.041%) were called active. Inconclusive results, whose numbers are uncertain, are shown with a selection of clear calls. The call rests on the fitted dose curve; in most records, active means well fitted inhibition curve with a large enough effect; inconclusive means small, poorly fitted or top-dose-only effect; inactive means flat fitted curve, though single readings scatter. Potencies of inconclusive entries are left out as doubtful fits.

Target: Beta-lactamase (Escherichia coli (strain K12)) (UniProt P00811)
Sequence of UniProt P00811 (P00811 whole entry, looked up): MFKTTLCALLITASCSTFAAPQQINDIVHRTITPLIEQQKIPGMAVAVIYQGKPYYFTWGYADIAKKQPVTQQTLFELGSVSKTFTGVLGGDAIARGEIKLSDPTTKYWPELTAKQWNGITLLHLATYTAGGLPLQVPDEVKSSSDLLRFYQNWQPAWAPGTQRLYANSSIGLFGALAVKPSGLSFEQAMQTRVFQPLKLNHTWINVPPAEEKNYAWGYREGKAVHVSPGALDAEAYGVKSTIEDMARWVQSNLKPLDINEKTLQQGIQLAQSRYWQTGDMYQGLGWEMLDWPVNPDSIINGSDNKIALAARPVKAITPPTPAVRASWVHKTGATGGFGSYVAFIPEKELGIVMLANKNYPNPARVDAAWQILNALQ
Experiment: qHTS Inhibitors of AmpC Beta-Lactamase (assay with detergent); further: nearly all actives have a fitted effect of over 25% in size
Details: AmpC hydrolysis of nitrocefin, absorbance 480 nm, 0.01% Triton; series mostly up to 114 µM
Procedure, shortened: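 AmpC (5.3 nM in the dispensed reagent) in 20 mM phosphate pH 7.0 with 0.01% (detergent screen) or 0.0001% Triton X-100 was preincubated with compounds for 15 min at room temperature. Nitrocefin was then added from an 800 uM solution, and hydrolysis was followed at 480 nm.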
Potency means the concentration at half of the fitted maximal effect; tags describe the fitted curve by direction and shape.

**Q.** COc1ccc(CCNC(=O)COC(=O)C2COc3ccccc3O2)cc1 (centres undefined) was tested. Which Potency did it give?
**A.** inconclusive [inhibitor, partial curve, poor fit]

**Q.** For NNc1nnc2c3cc(F)ccc3n(Cc3ccccc3)c2n1, which Potency is on record?
**A.** inactive

**Q.** With O=C(Nc1cnc2ccccc2c1)C1COc2ccccc2O1 (centres undefined) as the molecule, how does the Potency read?
**A.** inconclusive [inhibitor, full curve, poor fit]

**Q.** How did the Potency turn out when COc1ccc(-c2nnc(SCC(=O)N3CCN(c4ccccc4)CC3)o2)cc1OC was run?
**A.** inconclusive [inhibitor, full curve, poor fit]

**Q.** How did the Potency turn out when CN(C)S(=O)(=O)c1cccc(C(=O)OCC(=O)Nc2sccc2C(N)=O)c1 was run?
**A.** inconclusive [inhibitor, full curve]

**Q.** How did the Potency turn out when COc1cccc(C(=O)N2CCOCC2)c1 was run?
**A.** inconclusive [inhibitor, partial curve]

**Q.** For NC(=O)C1CCN(S(=O)(=O)c2cc3c4c(c2)CCN4C(=O)CC3)CC1, which Potency is on record?
**A.** inconclusive [inhibitor, single point]

**Q.** With Fc1ccc(-[n+]2nc(Nc3ccccc3)sc2-c2ccc(OCc3ccccc3)cc2)cc1 as the molecule, how does the Potency read?
**A.** inconclusive [inhibitor, full curve, poor fit]

**Q.** For COc1ccc(CN(CCC(c2ccccc2)c2ccco2)C(=O)c2ccco2)cc1 (centres undefined), which Potency is on record?
**A.** inconclusive [inhibitor, partial curve, poor fit]

**Q.** With CCOC(=O)c1c[nH]c2c3c(ccc2c1=O)CCCC3 as the molecule, how does the Potency read?
**A.** inconclusive [inhibitor, partial curve, poor fit]

**Q.** How did the Potency turn out when CCCCN(C)C(=O)c1ccc2c(c1)N(CC)C(=O)c1ccccc1S2(=O)=O was run?
**A.** inconclusive [inhibitor, full curve, poor fit]

**Q.** How did the Potency turn out when CC(=O)c1ccc(NC(=O)CN2CCCC2)cc1 was run?
**A.** inconclusive [inhibitor, full curve, poor fit]

**Q.** Which Potency does the source give for CN1CCN(/N=C/c2ccc(-c3ccccc3)cc2)CC1 here?
**A.** inactive

**Q.** With CCCC1=C(C(=O)OCC)C(c2ccc(F)cc2)n2ncnc2N1 (centres undefined) as the molecule, how does the Potency read?
**A.** inconclusive [inhibitor, partial curve, poor fit]

**Q.** COc1cc(OC)cc(-c2nnc(SCC(=O)N3CCCCC3)o2)c1 was tested. Which Potency did it give?
**A.** inconclusive [inhibitor, full curve, poor fit]

**Q.** Cc1ccc(NC(=S)N2CCN(Cc3ccccc3)CC2)c(C)c1 was tested. Which Potency did it give?
**A.** inactive

**Q.** Which Potency does the source give for CC(=O)N1CCN(CC(=O)Nc2ccc(Cl)c(S(=O)(=O)N(C)C)c2)CC1 here?
**A.** inconclusive [inhibitor, partial curve, poor fit]

**Q.** COC(=O)/C(=C\c1ccc2c(c1)c1ccccc1n2C)NC(=O)c1ccccc1 was tested. Which Potency did it give?
**A.** inactive

**Q.** Which Potency does the source give for Cc1ccc(NC(=O)c2ccc(OC(=O)c3ccco3)cc2)cc1 here?
**A.** inconclusive [inhibitor, single point]

**Q.** How did the Potency turn out when COC(=O)c1ccc2c(c1)N(CC(=O)Nc1ccc(C)c(C)c1)C(=O)c1ccccc1S2 was run?
**A.** inconclusive [inhibitor, partial curve, poor fit]

**Q.** With O=C(NCCCN1CCOCC1)c1cc(-c2ccc(Cl)s2)nc2ccccc12 as the molecule, how does the Potency read?
**A.** inactive

**Q.** How did the Potency turn out when COc1ccc(-n2nnnc2C2CCN(S(=O)(=O)c3cccc(Cl)c3C)CC2)cc1 was run?
**A.** inactive

**Q.** For CCOC(=O)Cc1csc(NC(=O)CC)n1, which Potency is on record?
**A.** inconclusive [inhibitor, full curve]

**Q.** How did the Potency turn out when O=C(Cc1cccs1)NCCc1ccc(F)cc1 was run?
**A.** inconclusive [inhibitor, full curve, poor fit]

**Q.** With O=C(O)C1CN2CCC1CC2 (centres undefined) as the molecule, how does the Potency read?
**A.** inconclusive [inhibitor, full curve, poor fit]

**Q.** Which Potency does the source give for O=C(O)c1cc(Br)ccc1NN=C1CCCCC1 here?
**A.** inconclusive [inhibitor, full curve, poor fit]

**Q.** For COc1ccc(CCN(C(=O)C(F)(F)F)C(C(=O)NC2CCCC2)c2cccs2)cc1OC (centres undefined), which Potency is on record?
**A.** inactive

**Q.** CCC(C(=O)NCc1ccc(F)cc1)N(Cc1ccco1)C(=O)c1snc(C(N)=O)c1N (centres undefined) was tested. Which Potency did it give?
**A.** inconclusive [inhibitor, partial curve, poor fit]

**Q.** For Cc1nc(Nc2cccc(O)c2)c2oc3ccccc3c2n1, which Potency is on record?
**A.** inactive

**Q.** Cn1c(SCC(=O)N2CCCCCC2)nc2c(c1=O)SCC2 was tested. Which Potency did it give?
**A.** inactive

**Q.** O=C(NCCc1cccs1)c1ccc(Cl)c(Cl)c1 was tested. Which Potency did it give?
**A.** inactive

**Q.** With COCCCNC(=S)NNC(=S)Nc1ccccc1 as the molecule, how does the Potency read?
**A.** inactive

**Q.** Which Potency does the source give for COc1ccc(C2CC(C(F)(F)F)n3nc(C(=O)O)cc3N2)cc1OC (centres undefined) here?
**A.** inconclusive [inhibitor, partial curve]

**Q.** COCCOC(=O)C1=C(C)NC(C)=C(C(=O)OC(C)C)C1c1cccc([N+](=O)[O-])c1 (centres undefined) was tested. Which Potency did it give?
**A.** inconclusive [inhibitor, full curve, poor fit]

**Q.** COC(=O)C1=NNC2(c3ccc(Cl)cc3)C(=O)N(c3ccccc3)C(=O)C12 (centres undefined) was tested. Which Potency did it give?
**A.** inconclusive [inhibitor, partial curve, poor fit]

**Q.** For O=C(CCC1CCCCC1)NCCS(=O)(=O)N1CCN(c2ccccc2F)CC1, which Potency is on record?
**A.** inconclusive [inhibitor, full curve]

**Q.** For Cc1cc2c(cc1S(=O)(=O)CCC(=O)NCc1ccccc1)OCC(=O)N2, which Potency is on record?
**A.** inconclusive [inhibitor, full curve, poor fit]

**Q.** Which Potency does the source give for Cc1c(C(=O)N2CCN(c3ccccn3)CC2)cccc1[N+](=O)[O-] here?
**A.** inconclusive [inhibitor, single point]

**Q.** COc1ccc(NC(=S)N(CCCN2CCC(C)CC2)Cc2cccs2)cc1Cl was tested. Which Potency did it give?
**A.** inactive

**Q.** For CC(C)CC(COCc1ccc(Cl)cc1)N1CCN(C(=O)c2ccc(C(F)(F)F)cc2)CCC1=O (centres undefined), which Potency is on record?
**A.** inconclusive [inhibitor, partial curve, poor fit]

**Q.** Which Potency does the source give for NS(=O)(=O)c1ccc(NC(=S)NCc2ccccc2Cl)cc1 here?
**A.** inconclusive [inhibitor, single point]

**Q.** How did the Potency turn out when CCOC(=O)C1(Cc2ccccc2Cl)CCN(S(=O)(=O)N(C)C)CC1 was run?
**A.** inactive

**Q.** Which Potency does the source give for CC(CCN1CCN=C1Nc1ccccc1)c1ccccc1 (centres undefined) here?
**A.** inconclusive [inhibitor, full curve, poor fit]

**Q.** Oc1[nH]c2ccccc2c1N=Nc1nncc2ccccc12 was tested. Which Potency did it give?
**A.** inactive

**Q.** For CCOc1ccc(NC(=O)CC2C(=O)N(C)C(=S)N2Cc2ccco2)cc1 (centres undefined), which Potency is on record?
**A.** inactive

**Q.** How did the Potency turn out when CN(C)c1ccc(N2C(=NC(=O)COc3ccccc3)SC3CS(=O)(=O)CC32)cc1 (centres undefined) was run?
**A.** inactive

**Q.** How did the Potency turn out when O=C(NCc1ccccc1)/C(=C/c1ccco1)NC(=O)c1ccco1 was run?
**A.** inactive

**Q.** Which Potency does the source give for C=CCC1=C/C(=C\c2c(N)n3nc(CC(=O)N4CCOCC4)sc3nc2=O)C=C(OC)C1=O here?
**A.** inconclusive [inhibitor, full curve, poor fit]

**Q.** With Cc1cccc(N2C(=O)CSC23C(=O)N(CC(=O)NCCc2ccccc2)c2ccccc23)c1 (centres undefined) as the molecule, how does the Potency read?
**A.** inconclusive [inhibitor, partial curve, poor fit]

**Q.** Which Potency does the source give for COc1cc(/C=N/NC(=O)Cn2nnc3ccccc32)ccc1O here?
**A.** inactive

**Q.** Cc1ccc(-c2c[n+](Cc3ccc(Cl)c(Cl)c3)c3n2CCC3)cc1 was tested. Which Potency did it give?
**A.** inconclusive [inhibitor, full curve, poor fit]

**Q.** With Cc1c(-c2nc(-c3ccc4c(c3)[nH]c(=O)n4C)no2)cccc1[N+](=O)[O-] as the molecule, how does the Potency read?
**A.** inactive

**Q.** How did the Potency turn out when O=c1oc2cc(O)ccc2c2ccccc12 was run?
**A.** inconclusive [inhibitor, single point]

**Q.** With CC(C)(C)NC(=O)C12CC3CC(CC(Cl)(C3)C1)C2 as the molecule, how does the Potency read?
**A.** inconclusive [inhibitor, partial curve]

**Q.** COc1cc(Nc2ccc(S(=O)(=O)N3CCN(C)CC3)cc2[N+](=O)[O-])cc(OC)c1 was tested. Which Potency did it give?
**A.** inconclusive [inhibitor, full curve, poor fit]

**Q.** How did the Potency turn out when CC(C)(C)c1ccc(OCC(=O)N2CCN(C=O)CC2)cc1 was run?
**A.** inconclusive [inhibitor, full curve, poor fit]

**Q.** For COc1ccccc1N1CCN(C(=O)c2ccc3c(c2)N(Cc2ccccc2)C(=O)c2ccccc2S3(=O)=O)CC1, which Potency is on record?
**A.** inactive

**Q.** Cc1cc(C)cc(NC(=O)CSCc2cc(=O)c3cc(Cl)ccc3[nH]2)c1 was tested. Which Potency did it give?
**A.** inactive

**Q.** CNCC(O)Cn1c2c(c3ccccc31)CCCC2 (centres undefined) was tested. Which Potency did it give?
**A.** inactive

**Q.** For CC(C)n1c(N2CCN(C(=O)Nc3ccc(F)cc3F)CC2)nc2ccccc21, which Potency is on record?
**A.** inactive

**Q.** For O=C(CCCn1c(=O)c2sccc2n(Cc2c(F)cccc2Cl)c1=O)NCc1ccccc1, which Potency is on record?
**A.** inactive

**Q.** With CN(C)S(=O)(=O)c1ccc(S(=O)(=O)N(CC(=O)Nc2ccccc2)Cc2ccco2)cc1 as the molecule, how does the Potency read?
**A.** inconclusive [inhibitor, single point]

**Q.** How did the Potency turn out when O=C(NCC1CCCN1S(=O)(=O)c1cccs1)c1ccc(F)cc1 (centres undefined) was run?
**A.** inconclusive [inhibitor, full curve, poor fit]

**Q.** How did the Potency turn out when CS(=O)(=O)N1CCC(C(=O)Nc2ccc(C(F)(F)F)cc2)CC1 was run?
**A.** inconclusive [inhibitor, single point]

**Q.** Cc1cccc(CSc2nc3c(cc2C#N)CCC3)c1 was tested. Which Potency did it give?
**A.** inconclusive [inhibitor, full curve, poor fit]

**Q.** With CCOc1cc(-c2nnc(NC(=O)c3ccco3)o2)cc(OCC)c1OCC as the molecule, how does the Potency read?
**A.** inconclusive [inhibitor, full curve, poor fit]

**Q.** Cc1ccc2c(c1)NCC(C(=O)NCc1ccccc1)O2 (centres undefined) was tested. Which Potency did it give?
**A.** inconclusive [inhibitor, full curve, poor fit]

**Q.** Which Potency does the source give for O=C(Nc1ccc(F)cc1F)c1ccc(-c2ccccc2)s1 here?
**A.** inactive

**Q.** COC(=O)c1ccc2c(=O)n(NC(=O)C(c3ccccc3)c3ccccc3)c(=S)[nH]c2c1 was tested. Which Potency did it give?
**A.** inconclusive [inhibitor, full curve, poor fit]
